Results on 115 sequences are retold here after the BET-seq Pho4 binding data (Le et al. 2018).

The other results are listed elsewhere or left out. The energies were worked out here from pooled read counts, against the library average; single values are noisy.

The assay deals with T1, Pho4 (S. cerevisiae) (UniProt P07270).
T1 sequence: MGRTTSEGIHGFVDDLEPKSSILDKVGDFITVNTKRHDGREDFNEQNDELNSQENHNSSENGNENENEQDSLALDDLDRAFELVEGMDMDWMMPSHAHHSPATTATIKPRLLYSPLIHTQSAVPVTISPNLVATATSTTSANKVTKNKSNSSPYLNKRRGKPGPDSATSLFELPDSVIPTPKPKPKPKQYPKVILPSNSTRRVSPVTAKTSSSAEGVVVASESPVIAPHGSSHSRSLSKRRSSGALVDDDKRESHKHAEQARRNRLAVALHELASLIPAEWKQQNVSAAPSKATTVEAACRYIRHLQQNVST
The assay is described as follows: relative binding free energy (BET-seq); higher = weaker binding. The following applies: reference: library average.
Consider TGGTCCACGTGGGGGA, for which the “relative binding free energy” value is -0.11 kcal/mol.
GTATTCACGTGCTGGC: the “relative binding free energy” value is 0.24 kcal/mol.
In the case of TTATACACGTGCATGT, the “relative binding free energy” value is -0.04 kcal/mol.
As for TGCCTCACGTGGGTTT, the figure is 0.07 kcal/mol.
As for GGAGTCACGTGCTTTA, the figure is 0.19 kcal/mol.
For the sequence TGCGTCACGTGTGAAG, the “relative binding free energy” value is 0.03 kcal/mol.
The figure for TGGAGCACGTGTTTCG is -0.01 kcal/mol; for GGGTGCACGTGGGGGT it is -0.07 kcal/mol.
The figure for ACGGTCACGTGGGATG is -0.07 kcal/mol; for TGGAACACGTGCAGGG it is 0.04 kcal/mol.
As for GGGAACACGTGGGTTT, the figure is -0.06 kcal/mol.
Turning to AGTTACACGTGTAAGG, the “relative binding free energy” value came out at 0.1 kcal/mol.
For the sequence ATTGACACGTGATGCT, the “relative binding free energy” value turned out to be 0.1 kcal/mol.
Take AGTCTCACGTGTAGTG: the “relative binding free energy” value came to 0.1 kcal/mol.
Regarding GTAGGCACGTGACGGT, the “relative binding free energy” value was 0.05 kcal/mol.
Consider TGGATCACGTGAGTTG, for which the “relative binding free energy” value amounted to 0.35 kcal/mol.
In the case of ACAGACACGTGTTGTT, the “relative binding free energy” value was 0.05 kcal/mol.
The figure for TGATGCACGTGACGTT is 0.09 kcal/mol; for TTGTGCACGTGATATG it is 0.05 kcal/mol.
TGGTTCACGTGAATGT: the “relative binding free energy” value is 0.37 kcal/mol.
Consider ATGCGCACGTGATGGT, for which the “relative binding free energy” value was -0.12 kcal/mol.
The figure for ATGAGCACGTGGGATT is -0.1 kcal/mol.
Regarding CGGTTCACGTGGGTGA, the “relative binding free energy” value turned out to be 0.25 kcal/mol.
As for GGTGTCACGTGGGGAC, the figure is 0.01 kcal/mol; as for ATGACCACGTGTGGGG, -0.04 kcal/mol; as for ATGGGCACGTGTGACT, -0.01 kcal/mol.
In the case of TTTGACACGTGGTAGA, the “relative binding free energy” value is -0.07 kcal/mol.
The figure for CGCTGCACGTGGGTTA is -0.14 kcal/mol; for TGGTCCACGTGTTATT it is 0.06 kcal/mol; for TTTACCACGTGGGCGG it is -0.23 kcal/mol.
For the sequence GTTTTCACGTGAATCT, the “relative binding free energy” value came to 0.5 kcal/mol.
As for AGGGACACGTGGGCGG, the figure is -0.1 kcal/mol.
GGGCCCACGTGGGGTT: the “relative binding free energy” value is -0.16 kcal/mol.
The figure for GGGCCCACGTGAGTGG is 0.13 kcal/mol; for GAGGTCACGTGGCATT it is 0.09 kcal/mol.
As for GGAGTCACGTGGCTTT, the figure is 0.03 kcal/mol; as for ATAGTCACGTGGTTGA, 0.08 kcal/mol; as for ATTCGCACGTGATTAT, 0.12 kcal/mol.
As for TGAATCACGTGTAGCG, the figure is 0.32 kcal/mol; as for GCCTTCACGTGGTGTG, 0.18 kcal/mol; as for GGTTCCACGTGTGAGG, 0.2 kcal/mol.
With GGCGCCACGTGGTGTT, the “relative binding free energy” value was -0.19 kcal/mol.
The figure for TCGGTCACGTGTGTCA is 0.09 kcal/mol; for GGGCACACGTGTCGGG it is 0.15 kcal/mol.
As for TTAGGCACGTGGGATG, the figure is -0.14 kcal/mol.
For the sequence GCGTGCACGTGTATGT, the “relative binding free energy” value is -0.06 kcal/mol.
As for CTGAGCACGTGTAAGG, the figure is -0.03 kcal/mol.
As for AGCTGCACGTGTTTGA, the figure is 0.08 kcal/mol.
For the sequence GAGGTCACGTGGGGTC, the “relative binding free energy” value came to 0.09 kcal/mol.
The figure for TTGGGCACGTGTCAGT is -0.06 kcal/mol; for GTATGCACGTGTGATA it is 0.01 kcal/mol; for TTTTTCACGTGATATT it is 0.38 kcal/mol.
Turning to TGGGTCACGTGTGGCG, the “relative binding free energy” value stood at 0.2 kcal/mol.
Regarding TAGTCCACGTGGGTAT, the “relative binding free energy” value turned out to be 0.04 kcal/mol.
ATTCTCACGTGTTGTA: the “relative binding free energy” value was determined as 0.34 kcal/mol.
The figure for TGTTGCACGTGCTAAG is -0.01 kcal/mol.
The figure for TCGTACACGTGGGTTG is -0.1 kcal/mol.
As for TGTTTCACGTGTGTAA, the figure is 0.32 kcal/mol; as for GGATACACGTGGGGAT, 0 kcal/mol; as for TGGTCCACGTGTCGTG, 0.08 kcal/mol.
On to TACTGCACGTGGATGT, for which the “relative binding free energy” value was -0.04 kcal/mol.
As for TCTTTCACGTGCTGTG, the “relative binding free energy” value worked out at 0.14 kcal/mol.
For the sequence AACAGCACGTGGGGTT, the “relative binding free energy” value was -0.21 kcal/mol.
The figure for TGGGACACGTGTGGTA is 0.07 kcal/mol.
The figure for CGATGCACGTGAGGTG is 0.09 kcal/mol; for CTGAGCACGTGATGTA it is 0.16 kcal/mol; for TGCGTCACGTGGGAAA it is 0.03 kcal/mol.
Consider CGGTTCACGTGGGCGT, for which the “relative binding free energy” value stood at 0.1 kcal/mol.
The figure for CTTCGCACGTGAGGGT is 0.19 kcal/mol.
As for TGGGTCACGTGGGTTC, the figure is 0.06 kcal/mol; as for AATTGCACGTGCTATG, -0.12 kcal/mol.
As for GTAGTCACGTGAGAAG, the figure is 0.24 kcal/mol.
With GGGGTCACGTGGCTTG, the “relative binding free energy” value turned out to be 0.08 kcal/mol.
As for GTTGTCACGTGCTTCG, the figure is 0.12 kcal/mol; as for GTGAACACGTGGGAGA, -0.07 kcal/mol; as for TGAAGCACGTGGTGAA, -0.13 kcal/mol.
As for TGATGCACGTGTACTT, the “relative binding free energy” value was found to be 0 kcal/mol.
As for AGGTGCACGTGCGGCG, the figure is -0.15 kcal/mol; as for TGGTTCACGTGATGGG, 0.37 kcal/mol; as for AAATTCACGTGGTTTA, 0.14 kcal/mol.
Regarding ATACACACGTGTGTGT, the “relative binding free energy” value was -0.09 kcal/mol.
Turning to TGTCTCACGTGTCTTT, the “relative binding free energy” value came to 0.22 kcal/mol.
As for ATGTTCACGTGGTCTT, the figure is 0.36 kcal/mol; as for CGGGGCACGTGATATG, -0.25 kcal/mol; as for GCGGTCACGTGTATTT, 0.24 kcal/mol.
Regarding GTGGACACGTGTCTTT, the “relative binding free energy” value is 0.23 kcal/mol.
Consider TGAGACACGTGTAGGA, for which the “relative binding free energy” value came to 0.04 kcal/mol.
The figure for GCATTCACGTGGGTGG is 0.1 kcal/mol; for TTTTTCACGTGTCATG it is 0.24 kcal/mol; for GGGGACACGTGCGCGG it is -0.08 kcal/mol.
As for CTATTCACGTGAGGAT, the figure is 0.44 kcal/mol.
In the case of TTGGGCACGTGAGGGG, the “relative binding free energy” value worked out at 0.18 kcal/mol.
The figure for CGGGGCACGTGGGTGG is -0.18 kcal/mol; for TGATGCACGTGGGGGC it is -0.11 kcal/mol; for GAGGACACGTGTAGGC it is 0.07 kcal/mol.
The figure for AGCCTCACGTGGGTTG is 0.02 kcal/mol; for TTAAACACGTGAGGTT it is 0.11 kcal/mol.
GGAAACACGTGTGTCT: the “relative binding free energy” value was found to be 0.18 kcal/mol.
Turning to TTTGACACGTGGTGAC, the “relative binding free energy” value is 0 kcal/mol.
The figure for GGCCTCACGTGGTATT is 0.26 kcal/mol; for TAGTGCACGTGGGAAG it is -0.13 kcal/mol.
The figure for GAGGTCACGTGCGGTG is 0.19 kcal/mol; for TTGTTCACGTGAAAAG it is 0.27 kcal/mol.
As for TACGGCACGTGGGAGT, the figure is -0.13 kcal/mol; as for TGCGACACGTGTTTTA, 0.05 kcal/mol.
Take TGCGTCACGTGGTCGT: the “relative binding free energy” value was -0.1 kcal/mol.
The figure for AAATGCACGTGGGTGT is -0.05 kcal/mol; for ATGGGCACGTGTCTGG it is -0.14 kcal/mol; for TGTCGCACGTGTAGCG it is -0.13 kcal/mol.
In the case of GTGCGCACGTGTGTGA, the “relative binding free energy” value is 0 kcal/mol.
As to TGTTCCACGTGTCATG, the “relative binding free energy” value is 0.06 kcal/mol.
Turning to ATTGGCACGTGGCATA, the “relative binding free energy” value was -0.22 kcal/mol.
The figure for CAGGGCACGTGGATGT is -0.05 kcal/mol; for TGACGCACGTGGCGGT it is -0.21 kcal/mol; for GTGGACACGTGTGGAA it is 0.01 kcal/mol.
